# Counter-ions that a name gives are not always drawn. The list shows a part of the results. No stated cut-off is given here; in the data, active = -2 or less and inactive = the rest. Single values are uncertain, as repeats are few or missing.
# Test system: hPSC-derived cortical neurons (WA09)
# Test: nuclei number (viability) z-score; higher = more surviving cells
# Conditions: 5 µM; treatment: days 7-14 after plating, readout day 21
# 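Further: nuclei counted from DAPI counterstain by automated high-content image analysis, four fields per well at ×20 in 384-well plates, with sequential b-score then z-score normalization.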
row,SMILES,nuclei number (z-score)
1,CC1CCc2c(N3CCC(O)CC3)c(F)cc3c(=O)c(C(=O)O)cn1c23 (centres undefined) [Nadifloxacin],inactive: 2.93
2,Cc1ccc(-c2ncc(Cl)cc2-c2ccc(S(C)(=O)=O)cc2)cn1 [Etoricoxib],inactive: -0.535
3,CC(C)(C)C[C@@H]1N[C@@H](C(=O)N[C@H]2CC[C@H](O)CC2)[C@H](c2cccc(Cl)c2F)[C@]12C(=O)Nc1cc(Cl)ccc12,active: -4.45
4,O=c1c2ccccc2oc2ccccc12 [Xanthone],inactive: 1.21
5,CO[C@H]1O[C@@H]2O[C@@]3(C)CC[C@H]4[C@H](C)CC[C@@H]([C@H]1C)[C@@]24OO3 [Artemether],inactive: 0.221
6,Cn1ncc(Cl)c1-c1cc(C(=O)N[C@H](CN)Cc2cccc(F)c2)sc1Cl,active: -2.35
7,NC12CC3CC(CC(C3)C1)C2 [Amantadine HCl],inactive: -0.38
8,CCCN(CCc1cccs1)[C@H]1CCc2c(O)cccc2C1 [Rotigotine],inactive: -0.123
9,Cc1cc(=O)n(-c2ccccc2)n1C [Antipyrine],inactive: 0.331
10,Clc1ccc(COC(Cn2ccnc2)c2ccc(Cl)cc2Cl)c(Cl)c1 (centres undefined) [Miconazole],inactive: -1.93
11,Clc1ccc(COC(Cn2ccnc2)c2ccc(Cl)cc2Cl)c(Cl)c1 (centres undefined) [Miconazole Nitrate],inactive: -0.93
12,C=CC(=O)N1CCC(Oc2cc3c(Nc4ccc(Cl)c(Cl)c4F)ncnc3cc2OC)CC1 [Poziotinib (HM781-36B)],inactive: -0.438
13,CO[C@@H](C(=O)N1Cc2[nH]nc(NC(=O)c3ccc(N4CCN(C)CC4)cc3)c2C1)c1ccccc1,inactive: 0.692
14,CN1CCN(C2=Nc3cc(Cl)ccc3Nc3ccccc32)CC1 [Clozapine],inactive: 1.07
15,Cc1c(Cc2ccc3ccccc3n2)c2cc(F)ccc2n1CC(=O)O,inactive: 0.325
16,Brc1ccc([C@H]2CN3CCSC3=N2)cc1 [(-)-p-Bromotetramisole Oxalate],inactive: 0.708
17,C[C@@H]1[C@H](O)[C@@H](C)/C=C/C=C/C=C/C=C/C=C/C=C/C=C/[C@H](O[C@@H]2O[C@H](C)[C@@H](O)[C@H](N)[C@@H]2O)C[C@@H]2O[C@](O)(C[C@@H](O)C[C@@H](O)[C@H](O)CC[C@@H](O)C[C@@H](O)CC(=O)O[C@H]1C)C[C@H](O)[C@H]2C(=O)O [Amphotericin B],inactive: -0.0257
18,CN1CCN(c2ccc(-c3ccncc3-c3cc(F)c(O)c(F)c3)cc2)CC1,inactive: 0.241
19,C[C@]12CC[C@@H]3c4ccc(O)cc4CC[C@H]3[C@@H]1CC[C@@H]2OC(=O)CCC1CCCC1 [Estradiol Cypionate],inactive: 0.5
20,C[C@H](NC(=O)[C@@H](O)c1cc(F)cc(F)c1)C(=O)N[C@@H]1C(=O)N(C)c2ccccc2-c2ccccc21,inactive: -1.21
21,CC(C)N(CCCNC(=O)Nc1ccc(C(C)(C)C)cc1)C[C@H]1O[C@@H](n2ccc3c(N)ncnc32)[C@H](O)[C@@H]1O,inactive: 0.484
22,C[C@H](NC(=O)Cc1cc(F)cc(F)c1)C(=O)N[C@H](C(=O)OC(C)(C)C)c1ccccc1,inactive: 0.0255
23,CNC(CC(=O)O)C(=O)O [NMDA (N-Methyl-D-aspartic acid)],inactive: 0.459

row,SMILES,nuclei number (z-score)
1,CN1C2=CC(=O)/C(=N\NC(N)=O)C=C2CC1S(=O)(=O)O (centres undefined) [Carbazochrome sodium sulfonate (AC-17)],inactive: -0.218
2,Cc1cc(Nc2ccc(NC(=O)c3ccc(Nc4ccnc5ccccc45)cc3)cc2)nc(N)n1,active: -3.41
3,CCC(NC(C)C)C(O)c1ccc(O)c(O)c1 (centres undefined) [Isoetharine Mesylate],inactive: -0.285
4,O=C(Cc1ccc(-c2ccc(OCCN3CCOCC3)cc2)cn1)NCc1ccccc1,active: -7.36
5,CN1CC(=O)NC1=N [Creatinine],inactive: 0.3
6,Nc1ncn([C@H]2C[C@H](O)[C@@H](CO)O2)c(=O)n1 [Decitabine],inactive: 0.145
7,CC(=O)Nc1ccc(NC(=S)NC(=O)c2ccc(C(C)(C)C)cc2)cc1 [Tenovin-1],inactive: -0.306
8,CCOc1cc(C(=O)N2CCC(N3CCN(C)CC3)CC2)ccc1Nc1ncc2c(n1)N(C1CCCC1)c1ccccc1C(=O)N2C,active: -6.78
9,O=C(NOCCO)c1ccc2cncn2c1Nc1ccc(I)cc1F,inactive: 0.512
10,O=c1cc(-c2ccc(O)c(O)c2)oc2cc(O)cc(O)c12 [Luteolin],inactive: -0.871
11,CCN[C@H]1C[C@H](C)S(=O)(=O)c2sc(S(N)(=O)=O)cc21 [Dorzolamide HCl],inactive: 0.734
12,CC(C)/N=c1\cc2n(-c3ccc(Cl)cc3)c3ccccc3nc-2cc1Nc1ccc(Cl)cc1 [Clofazimine],inactive: -0.197
13,O=C1Cc2cc(CCN3CCN(c4nsc5ccccc45)CC3)c(Cl)cc2N1 [Ziprasidone HCl],inactive: -0.0471
14,CC(C)(Sc1cc(C(C)(C)C)c(O)c(C(C)(C)C)c1)Sc1cc(C(C)(C)C)c(O)c(C(C)(C)C)c1 [Probucol],inactive: -0.0477
15,Oc1ccc(Cl)c2cccnc12 [Cloxiquine],active: -3.45
16,Nc1c(Br)cc(Br)cc1CN[C@H]1CC[C@H](O)CC1 [Ambroxol HCl],inactive: 1.11
17,Cn1ccnc1S [Methimazole],inactive: 0.0304
18,C=CC(=O)Nc1cccc(Nc2nc(Nc3ccc(N4CCN(C(C)=O)CC4)cc3OC)ncc2C(F)(F)F)c1,inactive: 3.2
19,CS(=O)(=O)CCNCc1ccc(-c2ccc3ncnc(Nc4ccc(OCc5cccc(F)c5)c(Cl)c4)c3c2)o1,inactive: -1.32
20,CS(=O)(=O)CCNCc1ccc(-c2ccc3ncnc(Nc4ccc(OCc5cccc(F)c5)c(Cl)c4)c3c2)o1 [Lapatinib],active: -4.22
21,COc1ccc(CCNCc2ccc(OCc3ccc(Cl)nc3)c(OC)c2)cc1OC,inactive: 0.402
22,CCOc1ccc(Cc2cc([C@@H]3O[C@H](SC)[C@@H](O)[C@H](O)[C@H]3O)ccc2Cl)cc1 [Sotagliflozin (LX4211)],inactive: 0.581
23,CC(C)(C)C(=O)OCOP(=O)(COCCn1cnc2c(N)ncnc21)OCOC(=O)C(C)(C)C [Adefovir Dipivoxil],active: -5.3

row,SMILES,nuclei number (z-score)
1,O.O.O.O.O=C([O-])CC(O)(CC(=O)[O-])C(=O)[O-].[Li+].[Li+].[Li+] [Citric acid trilithium salt tetrahydrate],inactive: 1.01
2,N#CC(c1ccc(Cl)cc1)c1c(Cl)cc(-n2ncc(=O)[nH]c2=O)cc1Cl (centres undefined) [Diclazuril],inactive: 0.316
3,O=c1ccc2ccc(O)c(O)c2o1 [Daphnetin],inactive: -1.09
4,COc1cc(OC)c(C(=O)CCCN2CCCC2)c(OC)c1 [Buflomedil HCl],inactive: 1.2
5,O=C(O)CC[C@H]1CC[C@@](c2cc(F)ccc2F)(S(=O)(=O)c2ccc(Cl)cc2)CC1,inactive: -0.771
6,C/C=C1\NC(=O)[C@H]2CSSCC/C=C/[C@H](CC(=O)N[C@H](C(C)C)C(=O)N2)OC(=O)[C@H](C(C)C)NC1=O [Romidepsin (FK228_ Depsipeptide)],active: -5.05
7,CN1CCC(=C2c3ccccc3CC(=O)c3sccc32)CC1 [Ketotifen Fumarate],inactive: -0.475
8,COc1ccccc1N1CCN(CC(O)COc2cccc3ccccc23)CC1 (centres undefined) [Naftopidil DiHCl],active: -2.03
9,COc1ccccc1N1CCN(CC(O)COc2cccc3ccccc23)CC1 (centres undefined) [Naftopidil],inactive: 0.117
10,Nc1nc(N)c2nc(-c3cccc(O)c3)cnc2n1,inactive: 0.705
11,O=C1O[C@H](CO)[C@@H](O)[C@H](O)[C@H]1O [Gluconolactone],inactive: 0.233
12,CC1(C)CCC(CN2CCN(c3ccc(C(=O)NS(=O)(=O)c4ccc(NCC5CCOCC5)c([N+](=O)[O-])c4)c(Oc4cnc5[nH]ccc5c4)c3)CC2)=C(c2ccc(Cl)cc2)C1,inactive: 0.861
13,COc1cc(OCc2cccc(-c3ccccc3)c2C)cc(OC)c1CN1CCCC[C@H]1C(=O)O [PD-1/PD-L1 inhibitor 1],inactive: 0.0315
14,CCCCCCCCCCC[C@@H](C[C@@H]1OC(=O)[C@H]1CCCCCC)OC(=O)[C@H](CC(C)C)NC=O [Orlistat],inactive: -0.216
15,CS(=O)(=O)c1cccc(CNc2nc(Nc3ccc4c(c3)CCC(=O)N4)ncc2C(F)(F)F)c1,inactive: 0.695
16,CC(C)(S)[C@@H](N)C(=O)O [Penicillamine],inactive: 0.893
17,Cc1ccc(NC(=O)c2ccc(CN3CC[C@H](N(C)C)C3)c(C(F)(F)F)c2)cc1Nc1nccc(-c2cncnc2)n1 [Bafetinib (INNO-406)],inactive: 0.518
18,CC(C)(Oc1ccc(Cl)cc1)C(=O)O [Clofibric Acid],inactive: -0.2
19,CC(=O)[C@@]1(O)CC[C@H]2[C@@H]3CCC4=CC(=O)CCC4=C3[C@@H](c3ccc(N(C)C)cc3)C[C@@]21C [Ulipristal],inactive: 1.8
20,COc1cc(Nc2ncc(F)c(Nc3ccc4c(n3)NC(=O)C(C)(C)O4)n2)cc(OC)c1OC [R406 (free base)],inactive: -0.272
21,COc1cc(Nc2ncc(F)c(Nc3ccc4c(n3)NC(=O)C(C)(C)O4)n2)cc(OC)c1OC,inactive: 0.149
22,CC(=O)NO [Acetohydroxamic acid],inactive: -0.13
23,O=NO [Sodium Nitrite],inactive: -0.164

# — the supplement of paper PMC11348887
